{
  "source": "PubChem BioAssay AID2546",
  "about": "(National Center for Advancing Translational Sciences (NCATS), 2010)",
  "note": "About 11,000 (3.5%) of roughly 310,000 compounds were called active. Inconclusive results (about 8%) are left out. Calls follow the shape of the dose curve; as a rule, active = well fitted inhibition curve with a large enough effect; inconclusive = small, poorly fitted or top-dose-only effect, or effect the other way; inactive = flat fitted curve, though single readings scatter. The entries are a selection whose mix differs from that of the whole data set. Some compounds were tested as several samples or in several runs, with calls that do not always agree. % is scaled to controls: 0 for no effect and ±100 for the full control effect; potency is read from the fitted curve at half-maximal effect.",
  "data": [
    {"experiment": "VP16 counterscreen qHTS for inhibitors of ROR gamma transcriptional activity;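 also: Gal4-VP16 expression switched on by copper sulfate through the metallothionein promoter; nearly all actives have a fitted effect of over 50% in size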", "details": "Drosophila S2 Gal4-VP16 UAS-luciferase, luminescence, 20 h; series mostly up to 53.6 µM; activity, negative = inhibition: at the top concentration", "description": "NIH Molecular Libraries Probe Production Network [MLPCN]\nNIH Chemical Genomics Center [NCGC]\nAssay Provider: Dan Littman, New York University\nThe retinoic acid-related orphan receptor (ROR) gamma is a transcription factor that has a central role in the differentiation of Th17 cells, a subset of T helper cells that secrete the inflammatory cytokines IL-17, IL-17F, and IL-22. Th17 cells have been implicated in graft versus host disease, autoimmune disease and asthma. ROR gamma is induced in naive T helper cells in the presence of TGF-beta combined with IL-6, IL-21, or IL-23, and thereafter directs the expression of the Th17 lineage cytokines. To identify nonspecific inhibitors, a Drosophila Schneider cell line was stably transfected with two vectors: a gene expressing a fusion of the Gal4 DNA binding domain and VP16 transactivation domain under the control of the metallothionine promoter and a Photinus luciferase reporter regulated by the Gal4 binding site enhancer, UAS. […] Small molecule inhibitors that inhibit components common to the RORgt and VP16 assays, such as the Gal4 DNA binding domain or the UAS luciferase reporter, will be active in both assays and thus scored as nonspecific.\nFor screening, 600 cells in 4 uL/well were dispensed into white solid 1536-well plates (Grenier) using a solenoid-based dispenser. Following transfer of 23 nL compound or DMSO vehicle by a pin tool, the plates were incubated 1 hr at ambient temperature, and 1 uL/well copper sulfate (700 uM final concentration) was added. The plates were centrifuged 15 s at 1000 RPM and incubated 20 hr at ambient temperature. After addition of 1.5 uL Photinus luciferase detection reagent, the plates were incubated 10 min at ambient temperature and then read by a ViewLux (Perkin Elmer) to detect luminescence.", "values": [
      {"smiles": "OC(c1ccccc1)(c1ccccc1)C1CCNCC1", "activity, negative = inhibition": "inactive: -11.3% [at 17 µM]"},
      {"smiles": "O=C1NC(=O)N(Cc2ccccc2)C(=O)/C1=C\\C=C\\c1ccco1", "activity, negative = inhibition": "inactive: -4.18% [at 10 µM]"},
      {"smiles": "CC(=O)OC1C[C@H](O[C@@H]2C(O)C[C@H](O[C@@H]3C(O)C[C@@H](OC4CC[C@]5(C)C(CCC6C5CC(O)[C@@]5(C)C(C7=CC(=O)OC7)CC[C@@]65O)C4)OC3C)OC2C)O[C@H](C)[C@H]1O[C@H]1OC(CO)C(O)C(O)C1O", "note": "(stereo partly drawn)", "activity, negative = inhibition": "inactive: -2.19%"},
      {"smiles": "O=C1C2CCN(CC2)C1(CO)CO", "activity, negative = inhibition": "inactive: -13.9%"},
      {"smiles": "O=C1C(Cl)=C(Cl)C(=O)C(Cl)=C1Cl", "activity, negative = inhibition": "inactive: -0.562%"},
      {"smiles": "Cc1ccc2c(Cl)cc(Cl)c(O)c2n1", "activity, negative = inhibition": "inactive: -4.05%"},
      {"smiles": "CC(C)[C@@]1(NC(=O)[C@@H]2C[C@H]3c4cccc5[nH]cc(c45)C[C@@H]3N(C)C2)O[C@]2(O)[C@H]3CCCN3C(=O)[C@H](Cc3ccccc3)N2C1=O", "activity, negative = inhibition": "inactive: -1.05% [at 17 µM]"},
      {"smiles": "CN(C)C(=O)Oc1ccc[n+](C)c1", "activity, negative = inhibition": "inactive: -2.07%"},
      {"smiles": "CC(C)C[C@H]1C(=O)N2CCC[C@@H]2[C@]2(O)O[C@](NC(=O)[C@H]3C=C4c5cccc6[nH]c(Br)c(c56)C[C@H]4N(C)C3)(C(C)C)C(=O)N12", "activity, negative = inhibition": "inactive: -9.73% [at 17 µM]"},
      {"smiles": "Cc1ccc(N)c(N)c1", "activity, negative = inhibition": "inactive: -4.82%"},
      {"smiles": "C=C(C)[C@H]1CN[C@H](C(=O)O)[C@@H]1CC(=O)O", "activity, negative = inhibition": "inactive: 2.83%"},
      {"smiles": "C=C(C)CN1CC[C@]23c4c5ccc(O)c4O[C@H]2c2[nH]c4ccccc4c2C[C@@]3(O)C1C5", "activity, negative = inhibition": "inactive: -20.3%"},
      {"smiles": "CO/C1=C\\C(C)=C\\[C@@H](C)[C@@H](O)[C@@H](C)C/C(C)=C/C=C\\[C@H](OC)C([C@@H](C)[C@@H](O)[C@H](C)[C@@]2(O)C[C@@H](O)[C@H](C)C(C(C)C)O2)OC1=O", "note": "(stereo partly drawn)", "activity, negative = inhibition": "inactive: -0.652% [at 1.91 µM]"},
      {"smiles": "CC1(C)C(=O)C=C[C@]2(C)[C@H]3CC[C@@]4(C)[C@H](c5ccoc5)OC(=O)[C@H]5O[C@]54[C@]3(C)[C@H](O)C[C@@H]12", "activity, negative = inhibition": "inactive: -15.3%"},
      {"smiles": "CCCC/C(C)=C/[C@@H](NP(=O)(c1ccccc1)c1ccccc1)c1ccccc1", "activity, negative = inhibition": "inactive: -14%"},
      {"smiles": "COc1ccc(CN2C(=O)NC(=O)/C(=C\\c3ccc(OC)c(OC)c3OC)C2=O)cc1", "activity, negative = inhibition": "inactive: 18.8%"},
      {"smiles": "O=C/C=C/c1ccccc1", "activity, negative = inhibition": "inactive"},
      {"smiles": "CC(=O)N1CCN(c2ccc(OC[C@H]3CO[C@](Cn4ccnc4)(c4ccc(Cl)cc4Cl)O3)cc2)CC1", "activity, negative = inhibition": "inactive"},
      {"smiles": "O=[N+]([O-])c1ccc(C2[C@H]3C(c4ccccc4)=NC4(CCCC4)N23)cc1", "note": "(stereo partly drawn)", "activity, negative = inhibition": "inactive: -3.95%"},
      {"smiles": "O=C(c1ccc(Cl)cc1)C1CCCN(Cc2ccc3ncccc3c2)C1", "note": "(stereo not drawn)", "Potency": "active: 7.08 µM"},
      {"smiles": "Cc1cc(SCc2sc(-c3ccc(C(F)(F)F)c(F)c3)nc2C)ccc1OCC(=O)O", "activity, negative = inhibition": "inactive: 12.8%"},
      {"smiles": "O=C1/C(=C\\c2ccncc2)N2CCC1CC2", "activity, negative = inhibition": "inactive: 1.3%"},
      {"smiles": "O=C1NC(=O)N(CCC2=CCCCC2)C(=O)/C1=C/c1cccs1", "activity, negative = inhibition": "inactive: 6.43%"},
      {"smiles": "CC[C@@H]1CN2CCc3cc(OC)c(OC)cc3[C@@H]2C[C@@H]1C[C@H]1NCCc2cc(OC)c(OC)cc21", "activity, negative = inhibition": "inactive: -94.5%"},
      {"smiles": "S=C=Nc1cccc2ccccc12", "Potency": "active: 12.6 µM"},
      {"smiles": "O=C(NC(=O)c1c(F)cccc1F)Nc1cc(Cl)c(OC(F)(F)C(F)C(F)(F)F)cc1Cl", "note": "(stereo not drawn)", "activity, negative = inhibition": "inactive: -0.645%"},
      {"smiles": "O=C(Nc1ccc(Oc2ccc(Cl)cc2)c(Cl)c1)c1cc(I)cc(I)c1O", "activity, negative = inhibition": "inactive: 0.246%"},
      {"smiles": "Oc1ccc2c3c1O[C@H]1c4[nH]c5ccccc5c4C[C@@]4(O)C(C2)N(CC2CC2)CC[C@]314", "activity, negative = inhibition": "inactive: -0.0263%"}
    ]}
  ]
}
